# Reference: publication PMC4336329 (PLoS ONE, 2015)
# The whole screen tested about 310,000 compounds, of which about 2,200 (0.71%) showed an effect of 50% or more. The effect is printed as a negative number. This is one part of the list.
# Target: human ether-à-go-go-related gene (hERG) potassium channel (human, UniProt Q12809)
# Assay: primary screen, population patch clamp on CHO cells stably expressing hERG
# Chain of human ether-à-go-go-related gene (hERG) potassium channel (Q12809 whole entry, looked up): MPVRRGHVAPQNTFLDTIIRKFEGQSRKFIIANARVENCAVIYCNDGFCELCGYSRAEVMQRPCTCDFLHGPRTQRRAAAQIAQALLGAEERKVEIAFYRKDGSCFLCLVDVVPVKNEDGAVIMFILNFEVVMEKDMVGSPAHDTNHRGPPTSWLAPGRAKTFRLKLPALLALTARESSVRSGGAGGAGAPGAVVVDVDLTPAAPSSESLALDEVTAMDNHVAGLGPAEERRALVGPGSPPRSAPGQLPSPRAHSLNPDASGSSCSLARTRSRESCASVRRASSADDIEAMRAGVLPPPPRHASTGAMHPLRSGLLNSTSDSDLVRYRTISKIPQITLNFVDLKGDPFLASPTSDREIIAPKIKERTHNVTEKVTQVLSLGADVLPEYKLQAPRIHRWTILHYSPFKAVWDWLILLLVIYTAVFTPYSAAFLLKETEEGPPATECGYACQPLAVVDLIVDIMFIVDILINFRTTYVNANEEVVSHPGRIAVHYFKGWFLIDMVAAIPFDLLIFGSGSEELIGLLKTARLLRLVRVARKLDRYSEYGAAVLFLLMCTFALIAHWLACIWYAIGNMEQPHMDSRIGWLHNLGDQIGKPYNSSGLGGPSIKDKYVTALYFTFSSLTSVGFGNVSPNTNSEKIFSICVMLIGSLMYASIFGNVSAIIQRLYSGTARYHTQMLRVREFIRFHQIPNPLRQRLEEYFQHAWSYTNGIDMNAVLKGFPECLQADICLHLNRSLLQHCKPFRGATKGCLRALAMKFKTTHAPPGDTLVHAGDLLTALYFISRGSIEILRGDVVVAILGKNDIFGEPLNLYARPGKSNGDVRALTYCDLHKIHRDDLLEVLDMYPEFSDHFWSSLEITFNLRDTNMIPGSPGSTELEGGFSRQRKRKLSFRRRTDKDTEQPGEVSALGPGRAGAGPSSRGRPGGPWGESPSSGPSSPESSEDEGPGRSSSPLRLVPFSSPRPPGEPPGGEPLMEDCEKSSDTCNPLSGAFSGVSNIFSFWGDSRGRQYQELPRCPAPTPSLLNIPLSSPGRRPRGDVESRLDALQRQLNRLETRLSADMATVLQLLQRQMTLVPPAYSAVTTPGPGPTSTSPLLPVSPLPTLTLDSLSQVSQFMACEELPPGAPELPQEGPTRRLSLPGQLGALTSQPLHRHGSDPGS
row,SMILES,"hERG current change (%, negative = inhibition) at 1uM"
1,Cl.O=C(c1ccc(Br)cc1)C(CN1CCOCC1)c1ccccc1 (stereo not drawn),11%
2,COc1cccc(CN(C)C(=O)CCNC(=O)c2ccco2)c1,8.78%
3,O=c1nc(/C=C/c2ccc(Cl)cc2Cl)cc(C(F)(F)F)[nH]1,2.83%
4,O=S(=O)(Nc1ccccc1Cl)c1cc(NC(=S)NCCN2CCOCC2)ccc1Cl,6.34%
5,COc1ccccc1Cn1c(=O)c2ccccc2n2c(SCC(=O)N3CCCCC3)nnc12,14.6%
6,COc1ccc(C2N(Cc3ccccc3)CCN2Cc2ccccc2)cc1[N+](=O)[O-],5.91%
7,O=S(=O)([N-]c1nc2ccccc2nc1-n1cc[n+](Cc2ccccc2)c1)c1ccc(Cl)cc1,10.6%
8,Cc1cc(C)nc(NC(=S)Nc2cccc(F)c2)c1,6.3%
9,Cc1cc(C)n(-c2cccc(Cl)c2C#N)n1,-0.42%
10,COc1ccccc1NC(=O)CC(NCCN(C)C)C(=O)O (stereo not drawn),24.7%
11,CCOC(=O)C1=C(O)C(=O)N(c2ccc(S(N)(=O)=O)cc2)C1c1ccc(OC)cc1 (stereo not drawn),0.861%
12,Cc1nc2sc(C(c3ccco3)N3CCN(c4ccccc4)CC3)c(O)n2n1 (stereo not drawn),6.29%
13,O=C1COc2ccc(S(=O)(=O)Nc3ccc4c(c3)OCO4)cc2N1,11.1%
14,CC(=O)Nc1ccc(S(=O)(=O)N2CCSC2c2ccco2)cc1 (stereo not drawn),12.8%
15,C#CCN(CC=C)C(=O)c1cccc(OC2CCN(S(C)(=O)=O)CC2)c1,7.58%
16,COCCn1c(C)cc(C(=O)CN2C(=O)NC3(CCCCCC3)C2=O)c1C,-2.21%
17,CCOc1ccc(C(CC(=O)O)n2cnnn2)cc1OC (stereo not drawn),12.1%
18,Cc1nn(CC(=O)Nc2ccc3c(c2)CCC3)c(C)c1[N+](=O)[O-],12.1%
19,CCOc1ccc(C(=O)CSc2nnc(C3CC3)n2C)cc1,16.4%
20,O=C(NNc1cccc(Cl)n1)c1ccccc1CC[N+](=O)[O-],12.8%
21,O=C(Nc1nc(-c2ccc(Cl)cc2)cs1)C1CCCO1 (stereo not drawn),4.86%
22,CCOC(=O)C(=O)c1c(-c2ccccc2)nc2ccccn12,12.6%
23,CCOC(=O)C1NN=C(C(=O)c2ccccc2)C1c1ccc(OC)cc1 (stereo not drawn),9.46%

row,SMILES,"hERG current change (%, negative = inhibition) at 1uM"
1,Cc1ccc(CS(=O)(=O)Cc2ccc(C(=O)NC3CCCCCC3)o2)cc1,-1.18%
2,Cc1ccccc1C(=O)Nc1c(C(=O)N(CCN(C)C)Cc2ccco2)oc2ccccc12,-81.1%
3,CCOC(=O)c1nnn(-c2ccccc2C#N)c1C,4.79%
4,O=C(COC(=O)C1(c2ccc(Cl)cc2)CCCC1)N1CCc2ccccc21,3.12%
5,C(#CCN1CCOCC1)COCCOC(c1ccccc1)c1ccccc1,12.8%
6,Cc1cccc(-c2nn(-c3ccccc3)cc2C(=O)NCC(c2cccs2)N2CCOCC2)c1 (stereo not drawn),8.19%
7,O=C(Nc1ccccc1O)c1csc2c1CCCC2,9.4%
8,CCOc1ccccc1NC(=O)COC(=O)c1cc[n+]([O-])cc1,17.1%
9,O=C1NC2(CCCCCC2)C(=O)N1Cc1ccccc1,11.7%
10,CN(C)c1ccc(/C=C(\NC(=O)c2ccccc2)C(=O)NCc2ccncc2)cc1,4.78%
11,CCOc1cccc(NC(=O)Cc2cccs2)c1,6.83%
12,CCOc1ccccc1C(=O)OC(C)C(=O)Nc1ccc(S(=O)(=O)N2CCCC2)cc1 (stereo not drawn),5.72%
13,CCOC(=O)N/N=C/c1cc(C)n(-c2ccccc2)c1C,7.84%
14,COC(=O)c1ccc(OCC(O)CN(CC(C)C)CC(C)C)cc1 (stereo not drawn),6.51%
15,Cc1nn(CCC(=O)N2CCN(S(=O)(=O)c3ccc(Cl)cc3)CC2)c(C)c1C,11.7%
16,COc1ccc(CN(C)CC(=O)NC(=O)NCc2ccccc2)cc1OC,17.4%
17,Nc1ccc(S(=O)(=O)Nc2nccc(/C=C/c3ccccc3F)n2)cc1,13.8%
18,CC(C(=O)Nc1nccs1)N1C(=O)C2CC=CCC2C1=O (stereo not drawn),8.41%
19,Cc1ccc(C)n1-c1ccc(N2CCOCC2)c(Br)c1,7.44%
20,O=C(c1cccn2c(=O)c3ccc(Cl)cc3nc12)N1CCC2(CC1)OCCO2,3.52%
21,NC(=O)/C(=N\O)c1ccccc1,-8.46%
22,C/C(=N\N=C(N)N)c1ccc(Cl)c(Cl)c1.CC(=O)O,2.45%
23,CCCCNC(=O)COC(=O)c1ccc(NS(=O)(=O)c2ccc3c(c2)OCCO3)cc1,16.4%

row,SMILES,"hERG current change (%, negative = inhibition) at 1uM"
1,COc1cnc(-c2ccccn2)nc1Oc1ccc(Cl)cc1,11.4%
2,Cc1cc(NC(=O)COC(=O)C2CC(=O)N(c3ccc(C)c(Cl)c3)C2)no1 (stereo not drawn),9.86%
3,CC(C)(C)OC(=O)NC1CCN(S(=O)(=O)c2ccc3c(c2)OCCO3)CC1,0.935%
4,COCCN1C(=O)c2oc3ccccc3c(=O)c2C1c1ccc(OC)c(OC)c1 (stereo not drawn),2.51%
5,N=C1c2ccccc2CN1c1ccc(S(=O)(=O)N2CCCCC2)cc1,-14.8%
6,Cc1ccccc1OCC(O)CN1CCN(CC(O)COc2ccccc2C)CC1 (stereo not drawn),-50.4%
7,O=C(Nc1ccc(Cl)c(Cl)c1)Nc1ccccc1NS(=O)(=O)c1cccs1,16%
8,C1CN(CC23CC4CC(CC(C4)C2)C3)CCO1.Cl,19.9%
9,Cc1cccc(/C(N)=N/OC(=O)c2ccncc2)c1,10.9%
10,COc1cc(C(=O)N(Cc2cc3cc(C)ccc3[nH]c2=O)CC2CCCO2)cc(OC)c1OC (stereo not drawn),13.5%
11,Nn1c(SCc2csc(-c3ccccc3)n2)nnc1-c1cccs1,3.15%
12,COc1ccc(CCN=C(N)NS(=O)(=O)c2cccs2)cc1,10.8%
13,Cc1cc(C)cc(NC(=O)CSc2ccc(-c3cccs3)nn2)c1,2.75%
14,CCOC(=O)CSc1nnc(-c2ccccc2)c(=O)[nH]1,-14.8%
15,CC1Cc2ccccc2N1C(=O)c1ccc2c(c1)OCO2 (stereo not drawn),15.9%
16,Cn1cc(Br)c(-c2cccc(N3C(=O)CCCC3=O)c2)n1,12.1%
17,O=C(CSc1n[nH]c(-c2cccs2)n1)N1CCN(S(=O)(=O)c2ccc3ccccc3c2)CC1,-3.55%
18,COc1ccc(C2N(C(=O)CN3CCOCC3)CCN2S(=O)(=O)c2ccccc2)cc1 (stereo not drawn),-1.26%
19,CC(=O)Nc1cccc(OCC(=O)NS(=O)(=O)c2ccc(C)cc2)c1,5.58%
20,Cc1sc2nc(CN3CCCC3)nc(N3CCN(C(=O)c4ccco4)CC3)c2c1C,-34.4%
21,CN1CCN(C(=O)c2sc(=S)n(-c3ccccc3)c2N)CC1,-3.96%
22,Cc1sc(NC(=O)c2c(F)cccc2F)nc1-c1ccccc1,11.3%
23,N#C/C(=C(/O)COC(=O)Cc1c[nH]c2ccccc12)c1nc2ccccc2[nH]1,12.8%

row,SMILES,"hERG current change (%, negative = inhibition) at 1uM"
1,CC(CC(=O)Nc1ccc(S(=O)(=O)Nc2ncccn2)cc1)c1ccccc1 (stereo not drawn),9.62%
2,COC(=O)c1ccccc1NC(=O)NN1CCN(C)CC1,-0.228%
3,Cc1ccccc1OCC(=O)OCC(=O)NCC1CCCO1 (stereo not drawn),15.8%
4,Nc1cccc(-c2nnc3n2CCCCC3)c1,10.3%
5,Cc1ccc(C(=O)N2CCC3(CC2)Oc2ccc(F)cc2C(=O)C32CC(c3cccnc3)=NO2)s1 (stereo not drawn),20.3%
6,CCN(/C=N/c1sc2c(c1C#N)CCCCC2)CC,6.54%
7,CN(C)CCN1C(=O)NC(C)(c2ccc([N+](=O)[O-])cc2)C1=O (stereo not drawn),0.545%
8,COc1cnc(SCc2ccc(Cl)cc2)nc1Cl,11.6%
9,CCOC(=O)C1=C(C)N2C(=C(C#N)[C@@H]1c1ccc(C(=O)OC)cc1)SC[C@@]2(O)C(C)(C)C,10.3%
10,N/C(=N\OC(=O)Cc1ccc(-c2ccccc2)cc1)c1cccnc1,0.886%
11,O=C1C(CCCNC(=S)NCc2ccccc2)NC(=S)N1Cc1ccccc1 (stereo not drawn),11.2%
12,CC(C(=O)NC(C)(C)C)N1C(=O)c2cccc3cccc(c23)C1=O (stereo not drawn),17.6%
13,Cc1ccc(-c2[nH]c(=S)[nH]c(=O)c2C#N)cc1,13%
14,CC1CCN(c2c(NCC3CCC(C(=O)Nc4ccccn4)CC3)c(=O)c2=O)CC1 (stereo not drawn),16.4%
15,CN(Cc1cn(-c2ccccc2)nc1-c1ccc2c(c1)OCO2)Cc1nccn1C,9.39%
16,N#C/C(=N\Nc1cccc(F)c1)C(=O)C1CC1,14.9%
17,CCN1CCN(c2ccc(S(=O)(=O)N3CCCCC3)cc2NC(=O)COc2ccc(Cl)cc2)CC1,5.42%
18,Cc1cc(C(C)(C)C)cc(S(=O)(=O)NCCO)c1C,10.5%
19,CC(C)(C)c1ccc(OC(=O)c2ccc3snnc3c2)cc1,14.9%
20,CSCC[C@H](NC(=O)[C@@H]1Cc2ccccc2CN1)C(=O)NC1CCCC1,4.72%
21,CCOc1ccc(-c2cc(C(=O)NCCCN3CCOCC3)c3ccccc3n2)cc1,8.35%
